Assay results published in the supplement of paper PMC8728848.
Some of the results follow.

What was measured:
Assay in all cases: glycan array binding signal (z-score within array); higher = stronger binding
Details in all cases: glycan notation: IUPAC condensed, linker removed
[1] = target: Gal(b1-4)GlcNAc(b1-2)[Gal(b1-4)GlcNAc(b1-6)]Man(a1-6)[GlcNAc(b1-4)][Gal(b1-4)GlcNAc(b1-2)Man(a1-3)]Man(b1-4)GlcNAc(b1-4)GlcNAc
Outline: (§1)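 Negative Z-scores can be read as non-binding. The Z-score is calculated within each array and then averaged across arrays of one protein sequence at different concentrations or buffers and across linkers. Arrays, 3228 in all, were curated from the Consortium for Functional Glycomics database and kept only where the protein sequence was available.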

[2] = target: Gal(b1-4)GlcNAc(b1-2)[Gal(b1-4)GlcNAc(b1-6)]Man(a1-6)[GlcNAc(b1-4)][Gal(b1-4)GlcNAc(b1-2)[Gal(b1-4)GlcNAc(b1-4)]Man(a1-3)]Man(b1-4)GlcNAc(b1-4)[Fuc(a1-6)]GlcNAc
Outline: as §1

[3] = target: Gal(b1-4)GlcNAc(b1-3)Gal(b1-3)GalNAc
Outline: as §1

[4] = target: Gal(b1-4)GlcNAc(b1-3)Gal(b1-3)GlcNAc
Outline: as §1

[5] = target: Gal(b1-4)GlcNAc(b1-3)Gal(b1-4)Glc
Outline: as §1

[6] = target: Gal(b1-4)GlcNAc(b1-3)Gal(b1-4)GlcNAc
Outline: as §1

[7] = target: Gal(b1-4)GlcNAc(b1-3)Gal(b1-4)GlcNAc(b1-2)Man(a1-3)[Gal(b1-4)GlcNAc(b1-3)Gal(b1-4)GlcNAc(b1-2)Man(a1-6)]Man(b1-4)GlcNAc(b1-4)GlcNAc
Outline: as §1

[8] = target: Gal(b1-4)GlcNAc(b1-3)Gal(b1-4)GlcNAc(b1-2)Man(a1-3)[Gal(b1-4)GlcNAc(b1-3)Gal(b1-4)GlcNAc(b1-2)Man(a1-6)]Man(b1-4)GlcNAc(b1-4)[Fuc(a1-6)]GlcNAc
Outline: as §1

[9] = target: Gal(b1-4)GlcNAc(b1-3)Gal(b1-4)GlcNAc(b1-2)[Gal(b1-4)GlcNAc(b1-3)Gal(b1-4)GlcNAc(b1-6)]Man(a1-6)[Gal(b1-4)GlcNAc(b1-3)Gal(b1-4)GlcNAc(b1-2)Man(a1-3)]Man(b1-4)GlcNAc(b1-4)GlcNAc
Outline: as §1

[10] = target: Gal(b1-4)GlcNAc(b1-3)Gal(b1-4)GlcNAc(b1-2)[Gal(b1-4)GlcNAc(b1-3)Gal(b1-4)GlcNAc(b1-6)]Man(a1-6)[Gal(b1-4)GlcNAc(b1-3)Gal(b1-4)GlcNAc(b1-2)Man(a1-3)]Man(b1-4)GlcNAc(b1-4)[Fuc(a1-6)]GlcNAc
Outline: as §1

[11] = target: Gal(b1-4)GlcNAc(b1-3)Gal(b1-4)GlcNAc(b1-3)Gal(b1-4)GlcNAc
Outline: as §1

[12] = target: Gal(b1-4)GlcNAc(b1-3)Gal(b1-4)GlcNAc(b1-3)Gal(b1-4)GlcNAc(b1-2)Man(a1-3)[Gal(b1-4)GlcNAc(b1-3)Gal(b1-4)GlcNAc(b1-3)Gal(b1-4)GlcNAc(b1-2)Man(a1-6)]Man(b1-4)GlcNAc(b1-4)GlcNAc
Outline: as §1

[13] = target: Gal(b1-4)GlcNAc(b1-3)Gal(b1-4)GlcNAc(b1-3)Gal(b1-4)GlcNAc(b1-2)Man(a1-3)[Gal(b1-4)GlcNAc(b1-3)Gal(b1-4)GlcNAc(b1-3)Gal(b1-4)GlcNAc(b1-2)Man(a1-6)]Man(b1-4)GlcNAc(b1-4)[Fuc(a1-6)]GlcNAc
Outline: as §1

[14] = target: Gal(b1-4)GlcNAc(b1-3)Gal(b1-4)GlcNAc(b1-3)Gal(b1-4)GlcNAc(b1-2)[Gal(b1-4)GlcNAc(b1-3)Gal(b1-4)GlcNAc(b1-3)Gal(b1-4)GlcNAc(b1-6)]Man(a1-6)[Gal(b1-4)GlcNAc(b1-3)Gal(b1-4)GlcNAc(b1-3)Gal(b1-4)GlcNAc(b1-2)Man(a1-3)]Man(b1-4)GlcNAc(b1-4)[Fuc(a1-6)]GlcNAc
Outline: as §1

[15] = target: Gal(b1-4)GlcNAc(b1-3)Gal(b1-4)GlcNAc(b1-3)Gal(b1-4)GlcNAc(b1-3)Gal(b1-4)GlcNAc(b1-2)Man(a1-3)[Gal(b1-4)GlcNAc(b1-3)Gal(b1-4)GlcNAc(b1-3)Gal(b1-4)GlcNAc(b1-3)Gal(b1-4)GlcNAc(b1-2)Man(a1-6)]Man(b1-4)GlcNAc(b1-4)GlcNAc
Outline: as §1

[16] = target: Gal(b1-4)GlcNAc(b1-3)Gal(b1-4)GlcNAc(b1-3)Gal(b1-4)GlcNAc(b1-3)Gal(b1-4)GlcNAc(b1-2)Man(a1-3)[Gal(b1-4)GlcNAc(b1-3)Gal(b1-4)GlcNAc(b1-3)Gal(b1-4)GlcNAc(b1-3)Gal(b1-4)GlcNAc(b1-2)Man(a1-6)]Man(b1-4)GlcNAc(b1-4)[Fuc(a1-6)]GlcNAc
Outline: as §1

[17] = target: Gal(b1-4)GlcNAc(b1-3)Gal(b1-4)GlcNAc(b1-3)Gal(b1-4)GlcNAc(b1-3)Gal(b1-4)GlcNAc(b1-2)[Gal(b1-4)GlcNAc(b1-3)Gal(b1-4)GlcNAc(b1-3)Gal(b1-4)GlcNAc(b1-3)Gal(b1-4)GlcNAc(b1-6)]Man(a1-6)[Gal(b1-4)GlcNAc(b1-3)Gal(b1-4)GlcNAc(b1-3)Gal(b1-4)GlcNAc(b1-3)Gal(b1-4)GlcNAc(b1-2)Man(a1-3)]Man(b1-4)GlcNAc(b1-4)[Fuc(a1-6)]GlcNAc
Outline: as §1

[18] = target: Gal(b1-4)GlcNAc(b1-3)Gal(b1-4)GlcNAc(b1-3)Gal(b1-4)GlcNAc(b1-3)Gal(b1-4)GlcNAc(b1-3)Gal(b1-4)GlcNAc(b1-2)Man(a1-3)[Gal(b1-4)GlcNAc(b1-3)Gal(b1-4)GlcNAc(b1-3)Gal(b1-4)GlcNAc(b1-3)Gal(b1-4)GlcNAc(b1-3)Gal(b1-4)GlcNAc(b1-2)Man(a1-6)]Man(b1-4)GlcNAc(b1-4)GlcNAc
Outline: as §1

[19] = target: Gal(b1-4)GlcNAc(b1-3)Gal(b1-4)GlcNAc(b1-3)Gal(b1-4)GlcNAc(b1-3)Gal(b1-4)GlcNAc(b1-3)Gal(b1-4)GlcNAc(b1-2)Man(a1-3)[Gal(b1-4)GlcNAc(b1-3)Gal(b1-4)GlcNAc(b1-3)Gal(b1-4)GlcNAc(b1-3)Gal(b1-4)GlcNAc(b1-3)Gal(b1-4)GlcNAc(b1-2)Man(a1-6)]Man(b1-4)GlcNAc(b1-4)[Fuc(a1-6)]GlcNAc
Outline: as §1

[20] = target: Gal(b1-4)GlcNAc(b1-3)Gal(b1-4)GlcNAc(b1-3)Gal(b1-4)GlcNAc(b1-3)Gal(b1-4)GlcNAc(b1-3)Gal(b1-4)GlcNAc(b1-2)[Gal(b1-4)GlcNAc(b1-3)Gal(b1-4)GlcNAc(b1-3)Gal(b1-4)GlcNAc(b1-3)Gal(b1-4)GlcNAc(b1-3)Gal(b1-4)GlcNAc(b1-6)]Man(a1-6)[Gal(b1-4)GlcNAc(b1-3)Gal(b1-4)GlcNAc(b1-3)Gal(b1-4)GlcNAc(b1-3)Gal(b1-4)GlcNAc(b1-3)Gal(b1-4)GlcNAc(b1-2)Man(a1-3)]Man(b1-4)GlcNAc(b1-4)[Fuc(a1-6)]GlcNAc
Outline: as §1

[21] = target: Gal(b1-4)GlcNAc(b1-3)Gal(b1-4)GlcNAc(b1-3)Gal(b1-4)GlcNAc(b1-3)Gal(b1-4)GlcNAc(b1-3)Gal(b1-4)GlcNAc(b1-3)Gal(b1-4)GlcNAc(b1-2)Man(a1-3)[Gal(b1-4)GlcNAc(b1-3)Gal(b1-4)GlcNAc(b1-3)Gal(b1-4)GlcNAc(b1-3)Gal(b1-4)GlcNAc(b1-3)Gal(b1-4)GlcNAc(b1-3)Gal(b1-4)GlcNAc(b1-2)Man(a1-6)]Man(b1-4)GlcNAc(b1-4)GlcNAc
Outline: as §1

[22] = target: Gal(b1-4)GlcNAc(b1-3)Gal(b1-4)GlcNAc(b1-3)GalNAc
Outline: as §1

[23] = target: Gal(b1-4)GlcNAc(b1-3)Gal(b1-4)GlcNAc(b1-3)[Gal(b1-4)GlcNAc(b1-3)Gal(b1-4)GlcNAc(b1-6)]GalNAc
Outline: as §1

[24] = target: Gal(b1-4)GlcNAc(b1-3)Gal(b1-4)GlcNAc(b1-6)[Gal(b1-3)]GalNAc
Outline: as §1

[25] = target: Gal(b1-4)GlcNAc(b1-3)Gal(b1-4)[Fuc(a1-3)]GlcNAc(b1-3)Gal(b1-4)[Fuc(a1-3)]GlcNAc
Outline: as §1

[26] = target: Gal(b1-4)GlcNAc(b1-3)GalNAc
Outline: as §1

[27] = target: Gal(b1-4)GlcNAc(b1-3)[Fuc(a1-3)GlcNAc(b1-6)]Gal(b1-4)Glc
Outline: as §1

[28] = target: Gal(b1-4)GlcNAc(b1-3)[Gal(b1-4)GlcNAc(b1-6)]Gal(b1-4)GlcNAc
Outline: as §1

[29] = target: Gal(b1-4)GlcNAc(b1-3)[GlcNAc(b1-6)]Gal(b1-4)GlcNAc
Outline: as §1

[30] = target: Gal(b1-4)GlcNAc(b1-6)Gal(b1-4)GlcNAc
Outline: as §1

[31] = target: Gal(b1-4)GlcNAc(b1-6)GalNAc
Outline: as §1

[32] = target: Gal(b1-4)GlcNAc(b1-6)[Gal(b1-3)]GalNAc
Outline: as §1

[33] = target: Gal(b1-4)GlcNAc(b1-6)[Gal(b1-4)GlcNAc(b1-3)]GalNAc
Outline: as §1

Gal(b1-4)GlcNAc6P = target: Gal(b1-4)GlcNAc6P
Outline: as §1

Gal(b1-6)Gal = target: Gal(b1-6)Gal
Outline: as §1

Gal3S(b1-3)GalNAc = target: Gal3S(b1-3)GalNAc
Outline: as §1

Gal3S(b1-3)GlcNAc = target: Gal3S(b1-3)GlcNAc
Outline: as §1

[34] = target: Gal3S(b1-3)[Fuc(a1-4)]GlcNAc
Outline: as §1

B1: SP15308A-bot-339-19-339 (Bacteroides ovatus) (protein)
chain: ACNNEWEDEQYEQYISFKSPIPAGGEGVTDIYVRYKEDGKVTYRLPIVVSGSTTNTLDREVHIAVDKDTLETLNIERFSIHRPGLWYTALEEDKYDFPKTVHISAGSSVEQLNIDFNLQGIDMLEKWVLPLTIVDDPSYNYKSHPRKNYAKALLRVIPFNNYSGSYTSSAMKVYTYINGKPDTNARTANKRTGYVINDNTVFFYAGLISEDLDKEVREKYKINVHFNEDGTLHMEQGDPTNKMKFELIGTPTYSKTSVMDATRPYLERRYVQIMFEYDFEDFSYGGNGVDVIPIKYKVEGSMTLQRNINTQIPDEDQQIEW
glycan array binding signal (z-score) [1]: -0.304 | glycan array binding signal (z-score) [2]: -0.757 | glycan array binding signal (z-score) [3]: -0.408 | glycan array binding signal (z-score) [4]: -0.173 | glycan array binding signal (z-score) [5]: 0.226 | glycan array binding signal (z-score) [6]: -0.125 | glycan array binding signal (z-score) [7]: 0.404 | glycan array binding signal (z-score) [8]: -0.278 | glycan array binding signal (z-score) [9]: 0.676 | glycan array binding signal (z-score) [10]: 0.103 | glycan array binding signal (z-score) [11]: 0.071 | glycan array binding signal (z-score) [12]: 0.702 | glycan array binding signal (z-score) [13]: 2.77 | glycan array binding signal (z-score) [14]: -0.333 | glycan array binding signal (z-score) [15]: 0.2 | glycan array binding signal (z-score) [16]: -0.114 | glycan array binding signal (z-score) [17]: 0.091 | glycan array binding signal (z-score) [18]: -0.342 | glycan array binding signal (z-score) [19]: 0.44 | glycan array binding signal (z-score) [20]: 0.968 | glycan array binding signal (z-score) [21]: 0.152 | glycan array binding signal (z-score) [22]: -0.439 | glycan array binding signal (z-score) [23]: 0.116 | glycan array binding signal (z-score) [24]: -0.29 | glycan array binding signal (z-score) [25]: -0.128 | glycan array binding signal (z-score) [26]: 0.135 | glycan array binding signal (z-score) [27]: -0.732 | glycan array binding signal (z-score) [28]: 0.369 | glycan array binding signal (z-score) [29]: -0.377 | glycan array binding signal (z-score) [30]: -0.427 | glycan array binding signal (z-score) [31]: 0.329 | glycan array binding signal (z-score) [32]: 0.088 | glycan array binding signal (z-score) [33]: -0.234 | glycan array binding signal (z-score) (Gal(b1-4)GlcNAc6P): 0.203 | glycan array binding signal (z-score) (Gal(b1-6)Gal): 0.157 | glycan array binding signal (z-score) (Gal3S(b1-3)GalNAc): 0.97 | glycan array binding signal (z-score) (Gal3S(b1-3)GlcNAc): -0.098 | glycan array binding signal (z-score) [34]: 0.015
